# The other results are listed elsewhere or left out.
# Legend:
# [1] = system: HSkMC (human skeletal muscle cells); test: cytotoxicity call (relative viability < 0.9); conditions: 10 µM
# [2] = system: HepG2; test: cytotoxicity call (relative viability < 0.9); conditions: 10 µM
# [3] = system: S. aureus RN4220; test: growth inhibition call (relative growth <= 0.2); conditions: 50 µM
SMILES,cytotoxicity call [1],cytotoxicity call [2],growth inhibition call [3]
COc1ccc2c3c([nH]c2c1)[C@H](CO)N(Cc1ccc(cc1)Cl)C[C@]13CCN(CC1)Cc1nccs1,inactive,inactive,inactive
COc1ccc(CN(C)C[C@H]2OCCCC[C@@H](C)Oc3ccc(NC(=O)CCC(F)(F)F)cc3C(=O)N([C@@H](C)CO)C[C@H]2C)cc1,inactive,inactive,inactive
C[C@@H]1CN([C@H](C)CO)C(=O)c2cc(C#Cc3ccccn3)cnc2O[C@H]1CN(C)C(=O)c1cnccn1,inactive,inactive,inactive
CO[C@@H]1CN(C)C(=O)c2cc(NC(=O)C3CC3)ccc2OC[C@H](C)N(C(=O)CN2CCOCC2)C[C@@H]1C,inactive,inactive,inactive
CC(C)NC(=O)N(C)C[C@H]1Oc2ccc(NC(=O)C3CCCCC3)cc2C(=O)N([C@H](C)CO)C[C@H]1C,inactive,inactive,inactive
O=C(C1=C[C@@H](c2ccc(C(F)(F)F)cc2)C[C@@H](OCc2ccc(CO)cc2)O1)N1CCN(Cc2ccccc2)CC1,inactive,inactive,inactive
O=C(C[C@@H]1C=C[C@@H](NC(=O)CN2CCOCC2)[C@@H](CO)O1)NCCc1ccccc1,inactive,inactive,inactive
C[C@H]1CN([C@@H](C)CO)C(=O)c2cc(NS(=O)(=O)c3cn(C)cn3)ccc2O[C@@H]1CN(C)S(=O)(=O)c1ccc(Cl)cc1,inactive,inactive,inactive
C[C@@H]1CN([C@H](C)CO)C(=O)c2cc(NC(=O)Cc3ccccc3)ccc2O[C@@H](C)CCCCO[C@H]1CN(C)Cc1ccccc1,inactive,inactive,inactive
C[C@@H]1CN([C@H](C)CO)C(=O)c2cc(NC(=O)C3CCCCC3)ccc2O[C@@H](C)CCCCO[C@@H]1CN(C)C(=O)CCC(F)(F)F,inactive,inactive,inactive
O=C(C[C@@H]1CC[C@@H](NC(=O)CN2CCOCC2)[C@H](CO)O1)NCCc1ccccc1,inactive,inactive,inactive
C[C@@H]1CN([C@H](C)CO)S(=O)(=O)c2ccc(-c3cccnc3)cc2O[C@@H]1CN(C)C(=O)c1ccc2c(c1)OCO2,inactive,inactive,inactive
O=C(C[C@@H]1CC[C@@H](NC(=O)c2cnccn2)[C@H](CO)O1)NCc1ccccc1F,inactive,inactive,inactive
Nc1c2c(=O)[nH]c(=O)cc-2[nH]n1-c1ccccc1,inactive,inactive,inactive
CCCNC(=O)C[C@@H]1CC[C@@H]2[C@H](COc3ccc(NS(=O)(=O)c4ccccc4C)cc3C(=O)N2C)O1,inactive,inactive,inactive
COc1ccc(S(=O)(=O)Nc2ccc3c(c2)C(=O)N([C@@H](C)CO)C[C@@H](C)[C@@H](CN(C)C(=O)Nc2c(C)noc2C)O3)cc1,inactive,inactive,inactive
C[C@H](CO)N1C[C@H](C)[C@H](CN(C)C(=O)Nc2cccc3ccccc23)Oc2c(NC(=O)Nc3ccc4c(c3)OCO4)cccc2C1=O,inactive,inactive,inactive
Nc1cccc2c1C(=O)N([C@H]1CCC(=O)NC1=O)C2=O,inactive,inactive,inactive
CO[C@H](CN(C)S(=O)(=O)c1cccc(Cl)c1)[C@@H](C)CN([C@@H](C)CO)S(=O)(=O)c1cccc(Cl)c1,inactive,inactive,inactive
C[C@H](CO)N1C[C@H](C)[C@@H](CN(C)Cc2ccc(C(F)(F)F)cc2)Oc2ccc(NC(=O)Cc3cn(C)c4ccccc34)cc2C1=O,inactive,inactive,inactive
C[C@H]1CCCCO[C@@H](CN(C)C(=O)Nc2ccc3c(c2)OCO3)[C@@H](C)CN([C@@H](C)CO)C(=O)c2cc(NC(=O)c3ccccc3)ccc2O1,inactive,inactive,inactive
CN1CCN(C(=O)C[C@@H]2CC[C@@H]3[C@H](COc4ccc(NC(=O)C5CCOCC5)cc4C(=O)N3C)O2)CC1,inactive,inactive,inactive
C[C@H]1c2cccc(O)c2C(=O)C2=C(O)[C@]3(O)C(=O)[C@@H](C(N)=O)C(=O)[C@@H](N(C)C)[C@@H]3[C@@H](O)[C@@H]21,inactive,inactive,active
COc1ccc([Si](C)(C)[C@H]2[C@H](CCn3cc([C@H](O)c4ccccc4)nn3)O[C@@]3(C(=O)N(C)c4c(Br)cc(C)cc43)[C@@H]2C)cc1,inactive,active,inactive
CC(C)NC(=O)Nc1ccc2c(c1)C(=O)N(C)[C@H]1CC[C@H](CC(=O)NCc3ccc(F)cc3)O[C@H]1CO2,inactive,inactive,inactive

# Source: the antibiotic and cytotoxicity screens of Wong et al. (2023)
